The supplement of paper PMC4604168 (melanoma cell lines)
The list shows a part of the results. Single values are uncertain, as repeats are few or missing.

Legend:
Test in all cases: cell count relative to DMSO control; melanoma cells; higher = more viable cells
Conditions in all cases: library dose: standard library concentration; 72 h
SkMel28 = tested on: SkMel28
SkMel2 = tested on: SkMel2
SkMel30 = tested on: SkMel30
SkMel5 = tested on: SkMel5
UACC257 = tested on: UACC257
UACC62 = tested on: UACC62
WM115 = tested on: WM115
WM1716 = tested on: WM1716
WM1745 = tested on: WM1745
WM3526 = tested on: WM3526
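Also: cells treated in 1,536-well plates, then fixed and DAPI-stained, with nuclei counted from automated high-throughput microscope images.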

Row | SMILES | cell count (SkMel28) | cell count (SkMel2) | cell count (SkMel30) | cell count (SkMel5) | cell count (UACC257) | cell count (UACC62) | cell count (WM115) | cell count (WM1716) | cell count (WM1745) | cell count (WM3526)
1 | CN(C)S(=O)(=O)c1ccc2c(c1)/C(=C/c1cc3c([nH]1)CCCC3)C(=O)N2 + COc1cc2ncnc(Nc3ccc(Oc4ccccc4)cc3)c2cc1OC [SrcI1] (first compound 2 µM, partner dose 10 µM) | 40.3% | 79.9% | 82.5% | 51.7% | 81.5% | 43.7% | 43% | 64% | 59.2% | 55.4%
2 | Cc1nc(Nc2ncc(C(=O)Nc3c(C)cccc3Cl)s2)cc(N2CCN(CCO)CC2)n1 [dasatanib] + OCCn1cc(-c2cnc3nnn(Cc4ccc5ncccc5c4)c3n2)cn1 [PF04217903] (first compound 0.02 µM, partner dose 5 µM) | 113% | 126% | 128% | 81.6% | 98.4% | 86.9% | 62.9% | 51.9% | 50.3% | 98.6%
3 | CO[C@@H]1[C@H](N(C)C(=O)c2ccccc2)C[C@H]2O[C@]1(C)n1c3ccccc3c3c4c(c5c6ccccc6n2c5c31)C(=O)NC4 [Midostaurin] + Cc1cc(N2CCOCC2)cc2[nH]c(-c3c(NC[C@@H](O)c4cccc(Cl)c4)cc[nH]c3=O)nc12 [BMS536924] (first compound 0.4 µM, partner dose 1 µM) | 44% | 37.5% | 73.8% | 49.7% | 78.9% | 55.1% | 53.4% | 66.7% | 22.9% | 60%
4 | C[C@]1(c2nc3c(C(N)=O)cccc3[nH]2)CCCN1 [Veliparib] + O=C(O)c1ccc(-c2c[nH]c3ncc(-c4ccccc4)cc23)cc1C1CCCC1 [GSK650394] (first compound 7 µM, partner dose 0.8 µM) | 68.7% | 65.9% | 108% | 74.1% | 74% | 78.2% | 54.9% | 74.5% | 72.2% | 83.8%
5 | C[C@]1(c2nc3c(C(N)=O)cccc3[nH]2)CCCN1 [Veliparib] + O=C(CCCCCCC(=O)Nc1ccccc1)NO [vorinostat] (first compound 7 µM, partner dose 0.4 µM) | 58.7% | 78% | 105% | 64.3% | 78% | 59.2% | 56.8% | 114% | 64.3% | 79%
6 | C=CCn1c(=O)c2cnc(Nc3ccc(N4CCN(C)CC4)cc3)nc2n1-c1cccc(C(C)(C)O)n1 + COc1cc(N2CCC(N3CCN(C)CC3)CC2)ccc1Nc1ncc(Cl)c(Nc2ccccc2S(=O)(=O)C(C)C)n1 [NVP-TAE684] (first compound 0.1 µM, partner dose 0.4 µM) | 44.8% | 54.3% | 78% | 39.4% | 74.6% | 54.2% | 37.6% | 65.9% | 25.4% | 30.2%
7 | C=CCn1c(=O)c2cnc(Nc3ccc(N4CCN(C)CC4)cc3)nc2n1-c1cccc(C(C)(C)O)n1 + O=c1cc(-c2cccc3c2Sc2ccccc2S3)oc(N2CCOCC2)c1 [KU55933] (first compound 0.1 µM, partner dose 5 µM) | 43% | 66.5% | 60.5% | 48.9% | 81.2% | 78.6% | 70.8% | 79.2% | 39.4% | 47.5%
8 | C[C@]1(c2nc3c(C(N)=O)cccc3[nH]2)CCCN1 [Veliparib] + NC(=O)Nc1cc(-c2cccc(F)c2)sc1C(=O)N[C@H]1CCCNC1 [AZD7762] (first compound 7 µM, partner dose 0.1 µM) | 36.9% | 77.5% | 64.9% | 63.9% | 92.5% | 60.2% | 68% | 70.2% | 52.9% | 52.3%
9 | Cc1nc(Nc2ncc(C(=O)Nc3c(C)cccc3Cl)s2)cc(N2CCN(CCO)CC2)n1 [dasatanib] + Cc1cc([N+](=O)[O-])ccc1NS(=O)(=O)c1cc(Cl)ccc1Cl [FH535] (first compound 0.02 µM, partner dose 5 µM) | 69.2% | 72.1% | 81.5% | 56.7% | 66.7% | 76.5% | 45.1% | 53.4% | 41.4% | 75.8%
10 | OCCn1cc(-c2cnc3nnn(Cc4ccc5ncccc5c4)c3n2)cn1 + CCN(CC)CCCCNc1ncc2cc(-c3cc(OC)cc(OC)c3)c(NC(=O)NC(C)(C)C)nc2n1 [PD173074] (first compound 5 µM, partner dose 0.5 µM) | 97% |  | 98.8% | 90.8% | 106% | 75.7% | 94% | 83.4% | 81.4% | 80.7%
11 | C=CCn1c(=O)c2cnc(Nc3ccc(N4CCN(C)CC4)cc3)nc2n1-c1cccc(C(C)(C)O)n1 + O=C(O)C(=O)Nc1sc2c(c1C(=O)O)CCNC2 [TCS401] (first compound 0.1 µM, partner dose 8.33333 µM) | 35.3% | 76.6% | 74.4% | 57.6% | 77.2% | 93.1% | 55.4% | 79.2% | 31.4% | 76.6%
12 | CO[C@@H]1[C@H](N(C)C(=O)c2ccccc2)C[C@H]2O[C@]1(C)n1c3ccccc3c3c4c(c5c6ccccc6n2c5c31)C(=O)NC4 [Midostaurin] + Oc1cc(-c2nc(-c3ccccc3)[nH]c2-c2ccncc2)ccc1Cl [L779450] (first compound 0.4 µM, partner dose 1 µM) | 29.7% | 18% | 56.9% | 49.1% | 73.5% | 59.2% | 36.1% | 34.8% | 34.5% | 49.2%
13 | CO[C@@H]1[C@H](N(C)C(=O)c2ccccc2)C[C@H]2O[C@]1(C)n1c3ccccc3c3c4c(c5c6ccccc6n2c5c31)C(=O)NC4 [Midostaurin] + CN(NC(=O)CC(=O)NN(C)C(=S)c1ccccc1)C(=S)c1ccccc1 [STA4783] (first compound 0.4 µM, partner dose 0.03 µM) | 34.3% |  | 77.8% | 32% | 82.9% | 77.6% | 26.7% | 41% | 35.1% | 76.8%
14 | CO[C@@H]1[C@H](N(C)C(=O)c2ccccc2)C[C@H]2O[C@]1(C)n1c3ccccc3c3c4c(c5c6ccccc6n2c5c31)C(=O)NC4 [Midostaurin] + c1cc(-c2cnn3cc(-c4ccc(OCCN5CCCCC5)cc4)cnc23)ccn1 [Dorsomorphin] (first compound 0.4 µM, partner dose 2 µM) | 64.1% |  | 68.9% | 62.9% | 69% | 68.1% | 42.1% | 42.2% | 34% | 74.7%
15 | CO[C@@H]1[C@H](N(C)C(=O)c2ccccc2)C[C@H]2O[C@]1(C)n1c3ccccc3c3c4c(c5c6ccccc6n2c5c31)C(=O)NC4 [Midostaurin] + CCN(CC)CCCCNc1ncc2cc(-c3cc(OC)cc(OC)c3)c(NC(=O)NC(C)(C)C)nc2n1 [PD173074] (first compound 0.4 µM, partner dose 0.5 µM) | 83.1% | 49.1% | 74.2% | 53% | 70.5% | 65.9% | 46.7% | 24.6% | 28.7% | 71.6%
16 | C=CCn1c(=O)c2cnc(Nc3ccc(N4CCN(C)CC4)cc3)nc2n1-c1cccc(C(C)(C)O)n1 + CCCCCCCCCCCC1=C(O)C(=O)C=C(O)C1=O [Embelin] (first compound 0.1 µM, partner dose 6 µM) | 52.2% | 63.6% | 71.3% | 47.9% | 76.7% | 76.4% | 64.6% | 80.2% | 33.1% | 69.1%
17 | CN(C)S(=O)(=O)c1ccc2c(c1)/C(=C/c1cc3c([nH]1)CCCC3)C(=O)N2 + O=C(O)C(=O)Nc1sc2c(c1C(=O)O)CCNC2 [TCS401] (first compound 2 µM, partner dose 8.33333 µM) | 48.8% | 96.7% | 111% | 80.2% | 83.7% | 115% | 51.1% | 69.7% | 57% | 81.4%
18 | Cc1nc(Nc2ncc(C(=O)Nc3c(C)cccc3Cl)s2)cc(N2CCN(CCO)CC2)n1 [dasatanib] + Oc1cc(-c2nc(-c3ccccc3)[nH]c2-c2ccncc2)ccc1Cl [L779450] (first compound 0.02 µM, partner dose 1 µM) | 36.4% | 30.7% | 74.3% | 67% | 83.7% | 45.7% | 29.9% | 38.3% | 36.6% | 45.7%
19 | NCC(=O)Nc1ccc(-n2nc(C(F)(F)F)cc2-c2ccc3c(ccc4ccccc43)c2)cc1 + COc1ccc2c(c1)CCC1C2CCC2(C)C(NCCCCCCN3C(=O)C=CC3=O)CCC12 [U73122] (first compound 5 µM, partner dose 2 µM) | 16.4% | 36.6% | 37.4% | 48.4% | 78.9% | 78.4% | 92.2% | 79.4% | 68.5% | 44.8%
20 | C=CCn1c(=O)c2cnc(Nc3ccc(N4CCN(C)CC4)cc3)nc2n1-c1cccc(C(C)(C)O)n1 + C[C@@H]1CCN(C(=O)CC#N)C[C@@H]1N(C)c1ncnc2[nH]ccc12 [CP690550] (first compound 0.1 µM, partner dose 5 µM) | 46.5% | 79.4% | 74.7% | 42.4% | 89.9% | 68.1% | 76.1% | 85.8% | 47.6% | 74.7%
